This is an account of results in the supplement of paper PMC9446081.

Out of some 39,000 compounds screened, about 220 (0.56%) showed activity. The list shows a part of the results.
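Also: static incubation at 37 °C against the wild-type strain, values averaged over two biological replicates.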

This test deals with Escherichia coli K-12 BW25113. The experiment in a line: relative growth (OD600 normalised to plate interquartile mean) (fraction); higher = less growth inhibition, active = 0.2 or less. The settings on record: 50 µM; LB; incubation time: overnight (16-24 h).
Regarding `C[C@H](CO)N1C[C@H](C)[C@H](CN(C)Cc2ccc(C(=O)O)cc2)Oc2ccc(NC(=O)CCN3CCOCC3)cc2C1=O`, the relative growth was inactive: 0.991.
As to `CN(C)C(=O)C[C@@H]1CC[C@@H]2[C@@H](COc3ccc(NS(=O)(=O)c4cccc(F)c4)cc3C(=O)N2C)O1`, the relative growth was inactive: 1.04.
The value for `C[C@@H]1CN([C@H](C)CO)C(=O)c2cccc(NC(=O)Nc3ccc4c(c3)OCO4)c2O[C@H]1CN(C)S(=O)(=O)c1cn(C)cn1` was inactive: 0.992; that for `COc1ccc(S(=O)(=O)Nc2ccc3c(c2)C(=O)N([C@@H](C)CO)C[C@H](C)[C@H](CN(C)C(=O)C2CCCCC2)OCCCC[C@@H](C)O3)cc1` was inactive: 1.01.
In the case of `C[C@@H]1CCCCO[C@H](CN(C)S(=O)(=O)c2ccc(F)cc2)[C@H](C)CN([C@@H](C)CO)C(=O)c2cc(NS(=O)(=O)c3ccc(Cl)cc3)ccc2O1`, the relative growth was inactive: 1.04.
The value for `Cc1ccc(S(=O)(=O)Nc2ccc3c(c2)C(=O)N([C@@H](C)CO)C[C@@H](C)[C@@H](CN(C)S(=O)(=O)c2ccccc2)O3)cc1` was inactive: 1.04; that for `C=CCN(C(=O)[C@H]1N(CCOCCO)C(=O)[C@H]2[C@H](C(=O)O)[C@@H]3C=C[C@@]21O3)c1ccc(OC)cc1` was inactive: 1.03.
The value for `CCOC(=O)N1CCN(C(=O)CN(C)S(=O)(=O)c2ccc3c(c2)c(=O)n(C)c(=O)n3C)CC1` was inactive: 0.999.
Take `COc1ccc(CN(C)C[C@@H]2OCCCC[C@@H](C)Oc3ccc(NC(=O)C4CCCCC4)cc3C(=O)N([C@@H](C)CO)C[C@@H]2C)cc1`: the relative growth is inactive: 1.01.
With `C[C@H]1CN([C@@H](C)CO)C(=O)c2cc(NC(=O)CCCN(C)C)ccc2O[C@@H]1CN(C)C(=O)Nc1ccc2c(c1)OCO2`, the relative growth was inactive: 0.994.
On to `CC(C)N1C[C@H](C)[C@@H](CN(C)Cc2ccc(Cl)cc2)Oc2c(C(=O)Nc3ccncc3)cccc2C1=O`, for which the relative growth was inactive: 0.971.
Turning to `C[C@@H]1CCCCO[C@H](CN(C)Cc2ccccc2)[C@H](C)CN([C@H](C)CO)C(=O)c2cc(NS(=O)(=O)c3ccc(Cl)cc3)ccc2O1`, the relative growth is inactive: 0.984.
Turning to `NS(=O)(=O)c1ccc2c(c1)OCCO2`, the relative growth was inactive: 0.979.
The value for `CN(C)CC(=O)N[C@H]1CC[C@@H](CC(=O)O)O[C@@H]1CO` was inactive: 0.996; that for `N#Cc1ccccc1C#CCO` was inactive: 0.965.
Consider `C[C@H]1CN([C@@H](C)CO)C(=O)c2cccc(NC(=O)c3cnccn3)c2O[C@@H]1CN(C)S(=O)(=O)c1ccc(F)cc1`, for which the relative growth is inactive: 0.996.
Take `C[C@@H]1CCCCO[C@H](CN(C)CC2CCCCC2)[C@H](C)CN([C@@H](C)CO)C(=O)c2cc(NC(=O)Nc3ccccc3)ccc2O1`: the relative growth is inactive: 0.963.
As for `C[C@@H]1CN([C@H](C)CO)C(=O)c2cc(NC(=O)C3CC3)ccc2O[C@@H]1CN(C)C(=O)NC1CCCCC1`, the relative growth was inactive: 0.971.
Turning to `C[C@@H]1CN([C@H](C)CO)C(=O)Cc2cc(NC(=O)Cn3cnnn3)ccc2O[C@@H]1CN(C)S(=O)(=O)c1ccccc1`, the relative growth is inactive: 0.975.
As for `C[C@H](CO)N1C[C@H](C)[C@H](CN(C)Cc2ccc(C(F)(F)F)cc2)Oc2c(NC(=O)Nc3cccc4ccccc34)cccc2C1=O`, the relative growth was inactive: 1.
`CN1C(=O)c2cc(NC(=O)C3CCOCC3)ccc2OC[C@H]2O[C@@H](CC(=O)NCc3ccc4c(c3)OCO4)CC[C@@H]21`: the relative growth was inactive: 0.993.
Take `COc1ccc(NC(=O)N(C)C[C@@H]2OCCCC[C@H](C)Oc3ccc(NC(=O)C4CCCCC4)cc3C(=O)N([C@@H](C)CO)C[C@H]2C)cc1`: the relative growth is inactive: 0.978.
The value for `Nc1nc(Cl)nc2c1ncn2[C@H]1C[C@H](O)[C@@H](CO)O1` was inactive: 0.971.
On to `COc1ccc(S(=O)(=O)N(C)C[C@@H]2Oc3ccc(NC(=O)C4CC4)cc3C(=O)N([C@H](C)CO)C[C@@H]2C)cc1`, for which the relative growth is inactive: 1.
For the compound `COCC(=O)N(C)C[C@@H]1Oc2cc(C#C[C@H](C)O)ccc2S(=O)(=O)N([C@@H](C)CO)C[C@@H]1C`, the relative growth was inactive: 1.
Turning to `C[C@H]1CN([C@@H](C)CO)C(=O)c2cc(-c3cccc(C(=O)N(C)C)c3)cnc2O[C@H]1CN(C)S(=O)(=O)c1ccc(F)cc1`, the relative growth is inactive: 0.996.
Take `O=C(C[C@@H]1C[C@H]2c3cc(NC(=O)c4cccnc4)ccc3O[C@H]2[C@H](CO)O1)NCc1cc(F)ccc1F`: the relative growth was inactive: 0.992.
The value for `C[C@H](CO)N1C[C@H](C)[C@H](CN(C)S(C)(=O)=O)Oc2c(cccc2N(C)C)C1=O` was inactive: 0.989; that for `COc1ccc(NC(=O)N(C)C[C@@H]2Oc3c(NC(=O)Nc4ccc(C(F)(F)F)cc4)cccc3C(=O)N([C@@H](C)CO)C[C@H]2C)cc1` was inactive: 0.789.
As for `C[C@@H]1CN([C@@H](C)CO)C(=O)Cc2cc(NC(=O)Cc3ccccc3)ccc2O[C@@H]1CN(C)S(=O)(=O)c1cn(C)cn1`, the relative growth is inactive: 1.03.
In the case of `C[C@@H]1CN([C@H](C)CO)C(=O)c2cc(NS(=O)(=O)c3ccccc3)ccc2O[C@@H]1CN(C)S(=O)(=O)c1cn(C)cn1`, the relative growth was inactive: 0.968.
Take `C[C@H](CO)N1C[C@H](C)[C@@H](CN(C)CC2CC2)Oc2ccc(NC(=O)CCN3CCOCC3)cc2CC1=O`: the relative growth is inactive: 1.02.
With `COCCCNC(=O)[C@]1(Cc2ccccc2N=[N+]=[N-])N=C(c2ccc(OCCCO)cc2)O[C@@H]1c1ccccc1`, the relative growth is inactive: 1.05.
In the case of `C[C@H](CO)N1C[C@H](C)[C@H](CN(C)C(=O)CCC(F)(F)F)OCCCC[C@H](C)Oc2ccc(NC(=O)NC3CCCCC3)cc2C1=O`, the relative growth is inactive: 1.01.
For the compound `CC(C)NC(=O)N(C)C[C@H]1OCCCC[C@@H](C)Oc2ccc(NC(=O)Nc3cccc4ccccc34)cc2C(=O)N([C@H](C)CO)C[C@@H]1C`, the relative growth is inactive: 0.989.
Regarding `CC(C)NC(=O)Nc1ccc2c(c1)CC(=O)N([C@@H](C)CO)C[C@@H](C)[C@H](CN(C)C(=O)Nc1ccc3c(c1)OCO3)O2`, the relative growth was inactive: 0.985.
For `Cc1noc(C)c1S(=O)(=O)Nc1ccc2c(c1)C(=O)N([C@@H](C)CO)C[C@@H](C)[C@@H](CN(C)CC1CCCCC1)OCCCC[C@H](C)O2`, the relative growth was inactive: 0.964.
